# The whole screen tested about 200,000 compounds, of which about 560 (0.28%) were called active. The inconclusive results got no clear call from the source; some entries with a clear call stand among them for comparison. Calls follow the shape of the dose curve; as a rule, active = well fitted inhibition curve with a large enough effect; inconclusive = small, poorly fitted or top-dose-only effect; inactive = flat fitted curve, though single readings scatter. Potencies of inconclusive entries are left out as doubtful fits.
# Target: Luciferin 4-monooxygenase (Photuris pensylvanica) (UniProt Q27757)
# Experiment: Counterscreen for Luciferase (Kinase-Glo TM) Inhibition; also: nearly all actives have a fitted effect of over 60% in size
# Conditions: ATP luminescence, 8 min; series mostly up to 38.3 µM
# Summary of the method: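 Compound is pinned into ATP-containing buffer (10 uM ATP, imidazole pH 7.2, 7 mM MgCl2). Kinase-Glo luciferase reagent is then added. Light output is recorded following an 8-min room-temperature incubation.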
# Potency is read from the fitted curve at half-maximal effect; tags tell the direction and shape of the fitted curve.
row,Compound,Potency
1,CSc1nc2sc(-c3ccccc3)cc2c(=O)n1N,"inconclusive [inhibitor, full curve]"
2,CNc1cccccc1=S,inactive
3,CCOC(=O)C1CCCN(C(=O)Cn2sc3nc(C)cc(C)c3c2=O)C1 (stereo unspecified),"inconclusive [inhibitor, single point]"
4,N#CC(c1cccc(Cl)c1)c1ccc2c(C(F)(F)F)cc(C(F)(F)F)nc2n1 (stereo unspecified),"inconclusive [inhibitor, partial curve]"
5,Cc1ccc(-c2cn3cccnc3n2)cc1,"inconclusive [inhibitor, single point]"
6,Cn1c(NC(=O)c2cccs2)cc(=O)n(C)c1=O,inactive
7,CC(=O)N(/N=C1\Sc2ccccc2C1=O)c1cccc(C)c1,"inconclusive [inhibitor, partial curve]"
8,COCCn1c(/C=C/c2ccccc2)nc2ccccc21,"inconclusive [inhibitor, single point]"
9,CN(C)c1ccc(/C=C/C=C2/SC(=S)N(c3ccccc3)C2=O)cc1,"inconclusive [inhibitor, partial curve]"
10,CCOC(=O)/C(=N\Nc1cccc(Cl)c1)Sc1nnc(-c2ccc(OC)cc2)n1C,inactive
11,c1ccc(-c2nnc(-c3ccco3)o2)cc1,"inconclusive [inhibitor, single point]"
12,CC[n+]1ccc(/C=C/c2ccc(N(C)C)cc2)c2ccccc21,"inconclusive [inhibitor, partial curve]"
13,O=C(Nc1nc2c(s1)CCCC2)c1cccnc1,"inconclusive [inhibitor, partial curve]"
14,Cc1ccsc1/C=N\NC(=O)c1n[nH]c2c1CCC2,active: 7.08 µM
15,C/C(=N\O)c1ccc(N2C(=O)C3CC=C(Cl)CC3C2=O)cc1 (stereo unspecified),inactive
16,COc1cccc(OCCCn2cc(/C=C3/C(=N)N4C=C(C)SC4=NC3=O)c3ccccc32)c1,inactive
17,CCCCCN=Cc1c(C)[nH]n(-c2nc3ccccc3s2)c1=O,"inconclusive [inhibitor, partial curve]"
18,O=C(Nc1ccc2c(c1)OCCO2)c1ccc2nccnc2c1,"inconclusive [inhibitor, partial curve]"
19,COc1cccc(NC(=O)/C=C/c2ccco2)c1,"inconclusive [inhibitor, partial curve]"
20,Cc1nn(C)c(C)c1S(=O)(=O)NC1CCCc2ccccc21 (stereo unspecified),inactive
21,O=C(Nc1nc2c(s1)CCCC2=O)c1cnccn1,"inconclusive [inhibitor, single point]"
22,Cc1ccc(N/C=C/C(=O)c2cccs2)cc1,"inconclusive [inhibitor, single point]"
23,Clc1ccccc1Nc1nnc(-c2ccncc2)s1,active: 1.26 µM
24,COc1ccc(C(=O)Nc2cccc(C)c2)cc1,"inconclusive [inhibitor, single point]"
25,Cc1ccnc(-n2sc3ccccc3c2=O)n1,"inconclusive [inhibitor, single point]"
26,O=C(/C=C/Nc1ccccc1Br)c1ccccn1,active: 12.6 µM

row,Compound,Potency
1,COc1ccc(/C=N/NC(=O)c2ccc(-c3ccccc3)cc2)cc1O,inactive
2,O=C(N/N=C/c1cccnc1)c1[nH]ncc1Br,"inconclusive [inhibitor, partial curve]"
3,c1ccc(CN=C2Nc3ccccc3CS2)nc1,"inconclusive [inhibitor, partial curve]"
4,CN=C1C([N+](=O)[O-])=CC=C2C1=NC1(CCCCC1)N2O,"inconclusive [inhibitor, partial curve]"
5,CCS(=O)(=O)c1ccc2oc(Nc3ccccc3C)nc2c1,"inconclusive [inhibitor, partial curve]"
6,O=C(/C=C/c1cccs1)c1ccc(N2CCOCC2)cc1,"inconclusive [inhibitor, single point]"
7,C=CCN(CC=C)c1cnn(-c2nc3ccccc3[nH]2)c(=O)c1Cl,active: 14.1 µM
8,Cc1ccc(C2=Nc3ccccc3N=C(C(Cl)Cl)C2)cc1,"inconclusive [inhibitor, single point]"
9,O=C(Nc1ccc(Cl)cc1)Nc1ccccc1C(=O)O,active: 12.6 µM
10,COc1ccc(C(=O)NNC(=S)NC(=O)/C=C/c2cccs2)cc1,"inconclusive [inhibitor, partial curve]"
11,C/C(=N/NC(=O)c1ccccn1)c1ccco1,active: 7.08 µM
12,CCCOc1ccc(/C=N/Nc2ccccc2[N+](=O)[O-])c(O)c1,active: 8.91 µM
13,Cc1cccc(C(=O)NNC(=O)c2ccc(Br)cc2)c1,inactive
14,O=C(CSc1ccccn1)N1CCN(c2cccc(Cl)c2)CC1,inactive
15,CN(C)S(=O)(=O)c1ccc2c(c1)nc(CCC(=O)Nc1ccc3c(c1)OCO3)n2C,inactive
16,Cc1ccccc1/C(N)=N/OC(=O)c1cccs1,"inconclusive [inhibitor, partial curve]"
17,O=[N+]([O-])c1cccnc1N/N=C/c1ccccc1O,active: 2 µM
18,Cn1c(=O)c2c(nc(NN=C3CCCCC3)n2C)n(C)c1=O,active: 11.2 µM
19,CCNC(=S)NNC(=O)c1cc(-c2cccc(C)c2)nc2ccccc12,active: 12.6 µM
20,CN1C(=O)/C(=C/C=C2\SCCN2C)N(C)C1=S,"inconclusive [inhibitor, partial curve]"
21,N/C(=N\OC(=O)C1CCCCC1)c1ccccn1,"inconclusive [inhibitor, partial curve]"
22,CCn1c(SC)nnc1-c1c[nH]c2ccccc12,"inconclusive [inhibitor, partial curve]"
23,CCN(CC)c1ccc(/C=C/C(=O)C2C(=O)C=C(C)OC2=O)cc1 (stereo unspecified),"inconclusive [inhibitor, single point]"
24,CN1\C(=C/C=C/C=C/C=[N+](C)C)C(C)(C)c2ccccc21,active: 11.2 µM
25,O=C(Nc1ccc(N2CCCC2)cc1)C(Cl)c1ccccc1 (stereo unspecified),"inconclusive [inhibitor, single point]"

# Source: PubChem BioAssay AID1379 (National Center for Advancing Translational Sciences (NCATS), 2008)
